Read counts are not given, so values of variants with three or more changes are uncertain.
B1: LINE1-mini (parent)
chain: GGCAGAGCUCAACACAGCGUGGCAAAGUGGCUGUGGCUAGACUGCC

Variants of: B1
Assay: self-cleavage, relative activity (ratio to wild type); higher = more cleavage; in vitro, sequencing; the parent is a self-cleaving ribozyme
U9C C18A U38G showed a self-cleavage of 0.02.
With C8U G17A G40C the self-cleavage was 0.03.
U9C G17U U28G gave a self-cleavage of 0.03.
With C8U G17A G29U the self-cleavage was 0.36.
Variant C8U G29U G36U C46U has a self-cleavage of 0.14.
For U9C C23U G27U G44C, the self-cleavage was 0.01.
U9A A39U G44A gave a self-cleavage of 0.11.
With C8U U34A G44A the self-cleavage was 0.12.
U9G A11G G36U U38A showed a self-cleavage of 0.
U9C G36U A39U G44U C45U gave a self-cleavage of 0.05.
Variant C8U U32A U34C G35C has a self-cleavage of 0.15.
Variant U9C G21A C31U has a self-cleavage of 0.02.
C8U U32G C37G showed a self-cleavage of 0.11.
For C8U U9C A14C G44U, the self-cleavage was 0.19.
With U9A A14C A26U the self-cleavage was 0.04.
Variant U9A U28G G30A has a self-cleavage of 0.24.
Variant U9C A14U G35U G40U has a self-cleavage of 0.03.
Variant U9C G44A C46U has a self-cleavage of 0.12.
C8U G29C A41U C45U gave a self-cleavage of 0.29.
Work on C8U C23G G27C U28A A39C C45U yielded a self-cleavage of 0.03.
In the case of U9A C31A G35U A41G, the self-cleavage is reported as 0.01.
Work on U9C C10A C13G C15A U32C G40U C46G yielded a self-cleavage of 0.02.
Variant U9C C10U G17A U28G has a self-cleavage of 0.01.
U9C C10A C15G gave a self-cleavage of 0.
Work on U9A C15A C23A yielded a self-cleavage of 0.05.
In the case of U9A G30U G36U C42U G44U, the self-cleavage is reported as 0.18.
U9A C23A A25G gave a self-cleavage of 0.27.
C8U G17C U20G G21A G30A gave a self-cleavage of 0.13.
Work on U9G A11C G21U C45G yielded a self-cleavage of 0.01.
U9A U38A C42G gave a self-cleavage of 0.02.
U9A C15A U32G C46G showed a self-cleavage of 0.36.
For U9C C13G G22C C46A, the self-cleavage was 0.01.
U9A C10A G19A C23G showed a self-cleavage of 0.01.
U9A A11G A12U G27A G30C showed a self-cleavage of 0.02.
For U9C G21A U28A, the self-cleavage was 0.04.
Variant C8U U9C C15U G35U has a self-cleavage of 0.07.
Work on U9C A24G G35C G36A U38G yielded a self-cleavage of 0.03.
For U9C G22C C23A C31A U32A C42G, the self-cleavage was 0.01.
U9A A26U C31A G40U showed a self-cleavage of 0.01.
C8U C23A G36U G40U C46U gave a self-cleavage of 0.21.
U9A A14C U28C gave a self-cleavage of 0.08.
U9A A12C A24C U38A C45U showed a self-cleavage of 0.
U9A C18U G36C gave a self-cleavage of 0.03.
U9A C18U G36U gave a self-cleavage of 0.05.
U9A G29C C46G showed a self-cleavage of 0.04.
In the case of U9A G22C G44A, the self-cleavage is reported as 0.05.
C8U U34A C46A gave a self-cleavage of 0.15.
U9A A26G U38C A39C U43A gave a self-cleavage of 0.07.
C8U C23A G27U gave a self-cleavage of 0.12.
U9A C10U U34G showed a self-cleavage of 0.07.
U9A C13G G27A U28C G29U C37U showed a self-cleavage of 0.16.
In the case of U9C U20A G44A, the self-cleavage is reported as 0.01.
For U9A C10G G40U, the self-cleavage was 0.01.
U9A G30A C31U U34G U43G gave a self-cleavage of 0.
U9C C13G G29U showed a self-cleavage of 0.02.
Work on U9A A12U G27A C31G C37A G44A C45G yielded a self-cleavage of 0.02.
U9A U28C G29C C42A gave a self-cleavage of 0.07.
Variant U9A C13G C45A has a self-cleavage of 0.24.
Variant U9A G19A A25C G27C U28C has a self-cleavage of 0.04.
C8U U32G G33A showed a self-cleavage of 0.46.
Variant C8U U9A G21C U28G A39U has a self-cleavage of 0.02.
For U9C A11U G30A G33U U38G, the self-cleavage was 0.03.
Variant U9C C13A A25C U34A has a self-cleavage of 0.01.
For U9C C13U G29U C37G, the self-cleavage was 0.01.
Variant U9A U20A C42U has a self-cleavage of 0.59.
With U9A G22U U28C U32A the self-cleavage was 0.16.
Variant U9A A16C G21U has a self-cleavage of 0.06.
With U9A C23A G30A G33U A39C the self-cleavage was 0.
Work on U9C C18U G22U G29U yielded a self-cleavage of 0.04.
In the case of U9A G21C U28C A41C C46U, the self-cleavage is reported as 0.03.
With U9A C10A C13G U20A G22U U34C C42A the self-cleavage was 0.02.
In the case of C8U G21C C37G, the self-cleavage is reported as 0.03.
In the case of U9C U20C A39C, the self-cleavage is reported as 0.04.
U9C C23G G27C gave a self-cleavage of 0.02.
U9A C15G C37G gave a self-cleavage of 0.07.
U9C U20A A24G G30U U34C gave a self-cleavage of 0.
Work on C8U G17C C46G yielded a self-cleavage of 0.37.
Variant C8U G19A C37U C42A has a self-cleavage of 0.09.
In the case of C8U U9C U38C, the self-cleavage is reported as 0.06.
For U9A A16U U20G G35U U38A, the self-cleavage was 0.12.
In the case of C8U U20A U28G, the self-cleavage is reported as 0.16.
C8U G33C C42A gave a self-cleavage of 0.08.
In the case of U9A G27U C31A, the self-cleavage is reported as 0.05.
U9C C10U G17A A25U showed a self-cleavage of 0.03.
C8U G17C A26U gave a self-cleavage of 0.01.
In the case of U9C A12G G29U U34G, the self-cleavage is reported as 0.01.
Variant U9A A25U G29U G44A has a self-cleavage of 0.11.
C8U G30A C37A A39U gave a self-cleavage of 1.35.
U9A A11U U20G C23G U32C G33C C46G gave a self-cleavage of 0.
For U9C C23A A24U C37G, the self-cleavage was 0.
Work on C8U U43A G44A yielded a self-cleavage of 0.69.
With C8U G27U C46A the self-cleavage was 0.56.
Work on U9C G35A C45U yielded a self-cleavage of 0.03.
C8U C18U G19C C42U showed a self-cleavage of 0.03.
For C8U U9A C31A, the self-cleavage was 0.47.
For U9A G17C C37U G44A C46G, the self-cleavage was 0.07.
In the case of C8U G35A U38A, the self-cleavage is reported as 0.09.
In the case of U9A A24U A26C G27C C31G, the self-cleavage is reported as 0.
C8U G30C U32A gave a self-cleavage of 0.06.
Work on U9C C18G U34C G35C yielded a self-cleavage of 0.02.
For U9C U20C G33U G40U, the self-cleavage was 0.04.
Work on U9A C23U A25G yielded a self-cleavage of 0.08.
In the case of U9C C13U G33A A39G, the self-cleavage is reported as 0.05.
U9A C10G G19A A24G U32C G35U showed a self-cleavage of 0.02.
U9A C15U U38G gave a self-cleavage of 0.16.
In the case of C8U G35C C37G, the self-cleavage is reported as 0.13.
C8U U20A A24G U32A U34C C45U gave a self-cleavage of 0.04.
U9C G21A C31A G40A A41C C42U G44C gave a self-cleavage of 0.01.
U9C C18U U32G showed a self-cleavage of 0.05.
For U9C A11C G17C G19C U20C A26G G30U, the self-cleavage was 0.01.
For U9A A12U A16U G19A C31A G36A, the self-cleavage was 0.
With U9A C18U G21A C37U the self-cleavage was 0.02.
For U9C A26G G33A, the self-cleavage was 0.01.
With U9A A26U U34A A39G the self-cleavage was 0.1.
C8U G36U G44C C46A gave a self-cleavage of 0.03.
For U9A A39U C42G, the self-cleavage was 0.03.
U9A G27A G30U U43A gave a self-cleavage of 0.35.
U9A G17A A41U gave a self-cleavage of 0.08.
In the case of U9C A16C U34A C42A, the self-cleavage is reported as 0.
In the case of U9A U28A G30A C31U G33A G36A, the self-cleavage is reported as 0.21.
Work on C8U C23G A25C C31U yielded a self-cleavage of 0.15.
In the case of U9C C45G C46G, the self-cleavage is reported as 0.02.
For U9A A16U G21U, the self-cleavage was 0.
In the case of U9C C18A G29U, the self-cleavage is reported as 0.02.
U9A A12U G30U U34G C45A showed a self-cleavage of 0.03.
Work on U9C C15A G27U yielded a self-cleavage of 0.
C8U U9G G19U U20C C23U U34A showed a self-cleavage of 0.04.
C8U U38C A39G gave a self-cleavage of 0.15.
U9C C10A C23A gave a self-cleavage of 0.02.
C8U U20A A26U U32A G35C C37U showed a self-cleavage of 0.01.
For U9C C15U U20A A25C G35A, the self-cleavage was 0.02.
Variant U9A U20A A39G has a self-cleavage of 0.
U9A U20A G22C A25C G29U A41G U43C showed a self-cleavage of 0.03.
Work on U9A G40U U43C yielded a self-cleavage of 0.05.
Work on C8U U20G G29A yielded a self-cleavage of 0.44.
For U9C A12C C13U C23G U34G C45G, the self-cleavage was 0.01.
For U9C C10U G33U A41U, the self-cleavage was 0.06.
Variant U9G A11G G19C G27C has a self-cleavage of 0.
C8U G27U C45G gave a self-cleavage of 0.08.
Variant U9C A12U A16U C37A has a self-cleavage of 0.03.
For C8U G35A G40A, the self-cleavage was 0.
Variant U9C C13U G22U has a self-cleavage of 0.03.
With U9A A11U U34A the self-cleavage was 0.02.
U9C C13G C15A C37U G44U C46U showed a self-cleavage of 0.
Work on U9A A25C G40C yielded a self-cleavage of 0.08.
U9C A12U C46U gave a self-cleavage of 0.02.
Work on U9A C15U G22U A26U C46A yielded a self-cleavage of 0.1.
Variant U9A G21A G27C U34G G44U has a self-cleavage of 0.24.
Variant C8U G17C G22A has a self-cleavage of 0.42.
For U9A A24G A25G C31U G36U, the self-cleavage was 0.
U9C C13A U20G U28C G30A U34C C45A gave a self-cleavage of 0.
With U9A G27U G35C A39G the self-cleavage was 0.02.
Work on C8U G17U G30C G40C yielded a self-cleavage of 0.08.
With C8U G22C C23G G36C A39C the self-cleavage was 0.03.
For U9C U38G C45U, the self-cleavage was 0.02.
U9C C10G G44U C46A showed a self-cleavage of 0.02.
With U9C G33C C37G the self-cleavage was 0.02.
Work on U9C C23U A25U yielded a self-cleavage of 0.01.
U9C C23A G44A gave a self-cleavage of 0.03.
Work on U9A U28C G36U C46U yielded a self-cleavage of 0.09.
In the case of U9C U32G A39G, the self-cleavage is reported as 0.03.
Work on U9C A24U G30A G35C G40U C46A yielded a self-cleavage of 0.01.
In the case of U9A G17A G19U A24C, the self-cleavage is reported as 0.06.
C8U G22C A26U C31A gave a self-cleavage of 0.25.
C8U G33C C37U showed a self-cleavage of 0.04.
U9A C13U G22A gave a self-cleavage of 0.04.
Variant U9A C10A C13G C23A has a self-cleavage of 0.07.

— the RNAGym collection of RNA variant scans (doi:10.7554/elife.90254)
